Measurements: the supplement of paper PMC11417369
± gives the standard deviation of the averaged measurements. This is one part of the list.

test system: PfAP2-EXP AP2 domain (GST-tagged); assay: gcPBM binding intensity (ln(normalized median fluorescence intensity)); higher = stronger DNA binding
Procedure, shortened: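 Alexa488 anti-GST antibody, scanned at 488 nm, detected GST-tagged P. falciparum DNA-binding domains that had been expressed in E. coli and incubated for 1 h on an Agilent 4 × 180k array. The array carried primer-extended double-stranded 36-bp intergenic genomic probes and negative controls. Binding intensity is the highest Masliner-normalised natural-log median intensity across replicate spots of either orientation of each probe.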

In order of rising “gcPBM binding intensity (ln)” value:
1. TAACCACAAAAATAAAATCAAAAAAAAAAAAAAAAA [CACACA_negctrl_site1727]  7.82 ± 0.2
2. TTTATTTTTTATATATCACTTAAAAAAAAAAAAAAA [CACACA_negctrl_site249]  8 ± 0.52
3. ACATATATATATATATAAATATATATGTATGTATTT [XGTACX_negctrl_site237]  8.14 ± 0.13
4. TATTTATTATGATACTCATATTATTCTATGATTAAA [GTGCAC_negctrl_site486]  8.29 ± 0.37
5. CCATGATTATTAGATTGTACATAACATACAAATTGA [XGTACX_site314]  8.33 ± 0.24
6. AAAAAAAAAAAAACTAGTACATATATATAGTATGAA [XGTACX_site6279]  8.34 ± 0.51
7. TTCATTTTATAAAAAGCACACATATAGTTATATGCA [CACACA_site9228]  8.37 ± 0.26
8. ATTTATATTTTATATACACACATGAACTTATATGGA [CACACA_site3167]  8.37 ± 0.41
9. AACGCAGTTTAATATACACACCAAAAAAAAAAAAAG [CACACA_site5643]  8.37 ± 0.38
10. AAAATAATATTTAATACACACATAATTACAATATAA [CACACA_site6510]  8.38 ± 0.42
11. ATTATATTTGAATGGTGTACTATAATAATGTAGTTT [XGTACX_site8069]  8.39 ± 0.35
12. ATATAGGTATAATACACACACTAATATGTAACTGTA [CACACA_site7011]  8.39 ± 0.54
13. TTATTACGAACTCTGCAACATATATAAATAAATAAA [CACACA_negctrl_site44]  8.41 ± 0.42
14. CTTATATTAATTATTACACACATATATATAAATGCA [CACACA_site770]  8.41 ± 0.31
15. GAATATAAAAGGAACGGTACAGAAAAAAAAAAAAAA [XGTACX_site3917]  8.42 ± 0.75
16. AGTTTACATTAAATCACGCACACAAAAAAAAAAAAA [CACACA_site2419]  8.44 ± 0.6
17. TTTCTTAAATATATGCGTACTCAAAATTGTTCTACA [XGTACX_site7995]  8.45 ± 0.4
18. TTAAAAATAAAACAAAGTACTCAAGTTATTGTCTTT [XGTACX_site1584]  8.46 ± 0.38
19. ATAACCTAATAATACACACACATGAATATATATAAT [CACACA_site4689]  8.48 ± 0.34
20. TAAATACCTATATGGCGTACTATTATCATAGTATAT [XGTACX_site5423]  8.49 ± 0.34
21. TACGTATTCATGTATAGTACTCTTTTTTTTAATAAA [XGTACX_site3299]  8.51 ± 0.46
22. AATATAGTCTCACATACACACATATATATTTATATA [CACACA_site2503]  8.52 ± 0.38
23. TATATATCAATATACACACACACATATTTATTTATA [CACACA_site6858]  8.53 ± 0.31
24. ATGTAATATATTATATGTACATATTTTTATGTAGAT [XGTACX_site5945]  8.61 ± 0.27
25. AAAACAAATAAGTAAACACACATATATAATATATAT [CACACA_site2586]  8.64 ± 0.37
26. TTTCGATTATGTTTTTGTACGCAATATATTAATTCT [XGTACX_site3634]  8.65 ± 0.29
27. AACAGACATACATACACACATACATACAGACATACA [CACACA_site1942]  8.7 ± 0.36
28. AATATATTTTTTTTTGGTACACAAGCACATCTATAC [XGTACX_site2183]  8.71 ± 0.52
29. CACGCATACAGACACACACACACACCCATATATATA [CACACA_site636]  8.71 ± 0.37
30. GAATAAATTAAATTCACACATAAAATACAAAATACA [CACACA_site5495]  8.74 ± 0.35
31. TTTCCTTTTTTAATATGTACACATATTATTATATCT [XGTACX_site3079]  8.78 ± 0.27
32. AAAAATATAATATAATGTACACATAAACAAAAAAAA [XGTACX_site3658]  8.79 ± 0.49
33. TATAAACCTACATACACACATACAATAAGTAAAATG [CACACA_site1921]  8.8 ± 0.47
34. TGGGAGCACAGACACACACACACACCCATATATATA [CACACA_site335]  8.81 ± 0.26
35. AAAGATAAAATATATACACACACATAAATACGTACA [CACACA_site8275]  8.81 ± 0.37
36. TAAAATAAAACAAACACACACACACCGACACAAAAA [CACACA_site5993]  8.82 ± 0.41
37. CGTAAATTTTTCTAAGTGCATGTTAATTTTTCAATT  8.82 ± 0.19
38. AACTATATATATAATTCACACATGTTTTAAAATTTT [CACACA_site4971]  8.86 ± 0.33
39. ATTCATATTTTTCAAGTGCGCATTAAAATATTAACC [GTGCAC_site9741]  8.88 ± 0.23
40. TATAATTAATTAGAAGTGCATTAGGTAACAACTGTC [GTGCAC_site9746]  8.9 ± 0.17
41. TACTATGCCCCATATAAACACACAAATAAAAAGAAT [CACACA_site8857]  8.9 ± 0.4
42. CATACACGCGGACACACACACACACGCATATATAAC [CACACA_site6427]  8.91 ± 0.34
43. TATGATATGTATGGAAGTACGAAGAGGGATGATCAG [XGTACX_site1677]  8.96 ± 0.49
44. ATTTTCAAATTAAAATGTACAAATGAAAGAAAGGGA [XGTACX_site7048]  8.96 ± 0.34
45. ATATATTCTTATTGCTGTACACATATTTTCTAAAAA [XGTACX_site4851]  9 ± 0.3
46. ATGTATCATAAGAACTGTGTGGTTACAGACACGAAC [GTGCAC_negctrl_site416]  9.02 ± 0.47
47. CTATGCATTTATAGTGCATGTAAAATATAAGATAAT [TGCATGCA_site71]  9.03 ± 0.32
48. CTTTTTTTTTTATGCACACACAATTATACATTCCTT [CACACA_site3877]  9.08 ± 0.37
49. TACCTTTTTTATGTTGCACACTGGGATGTTTTCTAA [CACACA_site1653]  9.11 ± 0.39
50. ATGTCATATATATGTTGTACGAGTTTGTTTATGTAT [XGTACX_site1150]  9.13 ± 0.57
51. AAAGAAAATAGGTGTACACATAATAAATACAGCTAT [CACACA_site5917]  9.17 ± 0.41
52. AATGTGCAGAAAAGTGGTACATATGATTGTTAAGAG [XGTACX_site1038]  9.21 ± 0.32
53. ACATTCTATACATACACACCCACACCCAAAAAAAAA [CACACA_site863]  9.29 ± 0.54
54. GTGAATCCTAAGTGTACACATCTTACAGATATATAT [CACACA_site4836]  9.46 ± 0.46
55. ATATATATATATTTCGCACACATAATCTTATTAAAT [CACACA_site2579]  9.9 ± 0.17
56. TGAAATAAAATTTGTACACACATATATATATATATA [CACACA_site586]  10 ± 0.42
57. ACAAGTGTATATGTTATATATATATATATATATATA [CACACA_negctrl_site1686]  10.1 ± 0.42
